# Experimental data from article PMC12820563, “FoxP3 forms a head-to-head dimer in vivo and stabilizes its multimerization on adjacent microsatellites”.
# The other results are listed elsewhere or left out.
# Biological target: T1, MBP-FoxP1dN (Mus musculus, UniProt P58462 326-579)
# T1 sequence: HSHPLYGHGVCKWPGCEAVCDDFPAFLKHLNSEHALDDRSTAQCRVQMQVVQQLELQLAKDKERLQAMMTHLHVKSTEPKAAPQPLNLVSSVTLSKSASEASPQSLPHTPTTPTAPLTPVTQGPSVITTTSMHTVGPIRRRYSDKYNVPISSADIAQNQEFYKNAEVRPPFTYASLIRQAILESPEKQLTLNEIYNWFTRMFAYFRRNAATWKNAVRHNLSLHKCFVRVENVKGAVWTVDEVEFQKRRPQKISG
# Assay: PD-seq (MBP pull-down with sequencing); 20 mM Tris-HCl pH 7.5, 100 mM NaCl, 1.5 mM MgCl2, 0.4 uM protein, 0.1 uM dsDNA library, 30 min, room temperature, amylose pull-down; high values mean tight binding
# Conditions: protein: recombinant; tags: His6-MBP; chain copies: 2; dsDNA, one strand shown
# Outline: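 Binding is the reads-per-million enrichment of pull-down relative to input, pooled across replicates. For this, 0.4 µM His6-MBP-tagged mouse FoxP3 or FoxP1 fragment lacking the N-terminus, made in E. coli, was incubated with 0.1 µM Klenow-filled double-stranded degenerate DNA library for 30 min at room temperature in Tris pH 7.5 buffer with NaCl and MgCl2. Complexes bound to amylose resin were washed three times before proteinase K released the DNA for PCR barcoding and Illumina sequencing.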
row,Sequence,binding signal
1,GATGATTGTTCTCCCAGCTGATGAATTACATATGTCGAGTAAACAAATTTTCCTAATCTTTCTGTTCAAGCGCCATCTAC,1.18 RPM ratio (pull-down/input)
2,GATGATTGTTCTCCCAGCTGATGAATTGTCAGCATCGAGTAAACAAATTTTCCTAATCTTTCTGTTCAAGCGCCATCTAC,1.33 RPM ratio (pull-down/input)
3,GATGATTGTTCTCCCAGCTGATGAATTATCTTACTCGAGTAAACAAATTTTCCTAATCTTTCTGTTCAAGCGCCATCTAC,0.919 RPM ratio (pull-down/input)
4,GATGATTGTTCTCCCAGCTGATGAATTACGCTCCTCGAGTAAACAAATTTTCCTAATCTTTCTGTTCAAGCGCCATCTAC,0.964 RPM ratio (pull-down/input)
5,GATGATTGTTCTCCCAGCTGATGAATTGTTAACCTCGAGTAAACAAATTTTCCTAATCTTTCTGTTCAAGCGCCATCTAC,1.03 RPM ratio (pull-down/input)
6,GATGATTGTTCTCCCAGCTGATGAATTCACAATATCGAGTAAACAAATTTTCCTAATCTTTCTGTTCAAGCGCCATCTAC,1.64 RPM ratio (pull-down/input)
7,GATGATTGTTCTCCCAGCTGATGAATTTGCGTGCTCGAGTAAACAAATTTTCCTAATCTTTCTGTTCAAGCGCCATCTAC,1.05 RPM ratio (pull-down/input)
8,GATGATTGTTCTCCCAGCTGATGAATTGCATAAATCGAGTAAACAAATTTTCCTAATCTTTCTGTTCAAGCGCCATCTAC,1.39 RPM ratio (pull-down/input)
9,GATGATTGTTCTCCCAGCTGATGAATTTCGAGGGTCGAGTAAACAAATTTTCCTAATCTTTCTGTTCAAGCGCCATCTAC,0.748 RPM ratio (pull-down/input)
10,GATGATTGTTCTCCCAGCTGATGAATTCAAGGCGTCGAGTAAACAAATTTTCCTAATCTTTCTGTTCAAGCGCCATCTAC,0.993 RPM ratio (pull-down/input)
11,GATGATTGTTCTCCCAGCTGATGAATTTCATCGTTCGAGTAAACAAATTTTCCTAATCTTTCTGTTCAAGCGCCATCTAC,0.871 RPM ratio (pull-down/input)
12,GATGATTGTTCTCCCAGCTGATGAATTTTGTACTTCGAGTAAACAAATTTTCCTAATCTTTCTGTTCAAGCGCCATCTAC,0.97 RPM ratio (pull-down/input)
13,GATGATTGTTCTCCCAGCTGATGAATTGTCGTTTTCGAGTAAACAAATTTTCCTAATCTTTCTGTTCAAGCGCCATCTAC,1.34 RPM ratio (pull-down/input)
14,GATGATTGTTCTCCCAGCTGATGAATTTTGGACCTCGAGTAAACAAATTTTCCTAATCTTTCTGTTCAAGCGCCATCTAC,0.828 RPM ratio (pull-down/input)
15,GATGATTGTTCTCCCAGCTGATGAATTTCGAGACTCGAGTAAACAAATTTTCCTAATCTTTCTGTTCAAGCGCCATCTAC,0.778 RPM ratio (pull-down/input)
16,GATGATTGTTCTCCCAGCTGATGAATTTGACCTATCGAGTAAACAAATTTTCCTAATCTTTCTGTTCAAGCGCCATCTAC,0.822 RPM ratio (pull-down/input)
17,GATGATTGTTCTCCCAGCTGATGAATTGTTCTCGTCGAGTAAACAAATTTTCCTAATCTTTCTGTTCAAGCGCCATCTAC,1.18 RPM ratio (pull-down/input)
18,GATGATTGTTCTCCCAGCTGATGAATTACGTGCATCGAGTAAACAAATTTTCCTAATCTTTCTGTTCAAGCGCCATCTAC,1.4 RPM ratio (pull-down/input)
19,GATGATTGTTCTCCCAGCTGATGAATTGGCTCGTTCGAGTAAACAAATTTTCCTAATCTTTCTGTTCAAGCGCCATCTAC,0.876 RPM ratio (pull-down/input)
20,GATGATTGTTCTCCCAGCTGATGAATTGAAAGTATCGAGTAAACAAATTTTCCTAATCTTTCTGTTCAAGCGCCATCTAC,1.01 RPM ratio (pull-down/input)
21,GATGATTGTTCTCCCAGCTGATGAATTTATTCTCTCGAGTAAACAAATTTTCCTAATCTTTCTGTTCAAGCGCCATCTAC,1.15 RPM ratio (pull-down/input)

row,Sequence,binding signal
1,GATGATTGTTCTCCCAGCTGATGAATTCGCAACGTCGAGTAAACAAATTTTCCTAATCTTTCTGTTCAAGCGCCATCTAC,0.918 RPM ratio (pull-down/input)
2,GATGATTGTTCTCCCAGCTGATGAATTCCTAACATCGAGTAAACAAATTTTCCTAATCTTTCTGTTCAAGCGCCATCTAC,1.04 RPM ratio (pull-down/input)
3,GATGATTGTTCTCCCAGCTGATGAATTTTTCGATTCGAGTAAACAAATTTTCCTAATCTTTCTGTTCAAGCGCCATCTAC,0.944 RPM ratio (pull-down/input)
4,GATGATTGTTCTCCCAGCTGATGAATTCCACGAATCGAGTAAACAAATTTTCCTAATCTTTCTGTTCAAGCGCCATCTAC,0.963 RPM ratio (pull-down/input)
5,GATGATTGTTCTCCCAGCTGATGAATTCCCCATGTCGAGTAAACAAATTTTCCTAATCTTTCTGTTCAAGCGCCATCTAC,0.795 RPM ratio (pull-down/input)
6,GATGATTGTTCTCCCAGCTGATGAATTAGCTTGGTCGAGTAAACAAATTTTCCTAATCTTTCTGTTCAAGCGCCATCTAC,0.839 RPM ratio (pull-down/input)
7,GATGATTGTTCTCCCAGCTGATGAATTCGCATGGTCGAGTAAACAAATTTTCCTAATCTTTCTGTTCAAGCGCCATCTAC,0.833 RPM ratio (pull-down/input)
8,GATGATTGTTCTCCCAGCTGATGAATTACTACAGTCGAGTAAACAAATTTTCCTAATCTTTCTGTTCAAGCGCCATCTAC,1.15 RPM ratio (pull-down/input)
9,GATGATTGTTCTCCCAGCTGATGAATTATTCGGGTCGAGTAAACAAATTTTCCTAATCTTTCTGTTCAAGCGCCATCTAC,0.886 RPM ratio (pull-down/input)
10,GATGATTGTTCTCCCAGCTGATGAATTGGGATCATCGAGTAAACAAATTTTCCTAATCTTTCTGTTCAAGCGCCATCTAC,0.969 RPM ratio (pull-down/input)
11,GATGATTGTTCTCCCAGCTGATGAATTAAGATTTTCGAGTAAACAAATTTTCCTAATCTTTCTGTTCAAGCGCCATCTAC,0.908 RPM ratio (pull-down/input)
12,GATGATTGTTCTCCCAGCTGATGAATTGGCAGCCTCGAGTAAACAAATTTTCCTAATCTTTCTGTTCAAGCGCCATCTAC,0.837 RPM ratio (pull-down/input)
13,GATGATTGTTCTCCCAGCTGATGAATTTCGCAACTCGAGTAAACAAATTTTCCTAATCTTTCTGTTCAAGCGCCATCTAC,0.986 RPM ratio (pull-down/input)
14,GATGATTGTTCTCCCAGCTGATGAATTACTCTCGTCGAGTAAACAAATTTTCCTAATCTTTCTGTTCAAGCGCCATCTAC,0.927 RPM ratio (pull-down/input)
15,GATGATTGTTCTCCCAGCTGATGAATTCCTTGAGTCGAGTAAACAAATTTTCCTAATCTTTCTGTTCAAGCGCCATCTAC,0.889 RPM ratio (pull-down/input)
16,GATGATTGTTCTCCCAGCTGATGAATTGAGCCGATCGAGTAAACAAATTTTCCTAATCTTTCTGTTCAAGCGCCATCTAC,0.824 RPM ratio (pull-down/input)
17,GATGATTGTTCTCCCAGCTGATGAATTGCTGTCCTCGAGTAAACAAATTTTCCTAATCTTTCTGTTCAAGCGCCATCTAC,1.09 RPM ratio (pull-down/input)
18,GATGATTGTTCTCCCAGCTGATGAATTGACCCTGTCGAGTAAACAAATTTTCCTAATCTTTCTGTTCAAGCGCCATCTAC,0.872 RPM ratio (pull-down/input)
19,GATGATTGTTCTCCCAGCTGATGAATTGCACCTATCGAGTAAACAAATTTTCCTAATCTTTCTGTTCAAGCGCCATCTAC,1.2 RPM ratio (pull-down/input)
20,GATGATTGTTCTCCCAGCTGATGAATTGTGGACGTCGAGTAAACAAATTTTCCTAATCTTTCTGTTCAAGCGCCATCTAC,1.03 RPM ratio (pull-down/input)
21,GATGATTGTTCTCCCAGCTGATGAATTCCGAGTCTCGAGTAAACAAATTTTCCTAATCTTTCTGTTCAAGCGCCATCTAC,0.803 RPM ratio (pull-down/input)

row,Sequence,binding signal
1,GATGATTGTTCTCCCAGCTGATGAATTGGCCTCGTCGAGTAAACAAATTTTCCTAATCTTTCTGTTCAAGCGCCATCTAC,0.815 RPM ratio (pull-down/input)
2,GATGATTGTTCTCCCAGCTGATGAATTAGCAGGGTCGAGTAAACAAATTTTCCTAATCTTTCTGTTCAAGCGCCATCTAC,0.83 RPM ratio (pull-down/input)
3,GATGATTGTTCTCCCAGCTGATGAATTGCGGCTCTCGAGTAAACAAATTTTCCTAATCTTTCTGTTCAAGCGCCATCTAC,0.955 RPM ratio (pull-down/input)
4,GATGATTGTTCTCCCAGCTGATGAATTTCACCGCTCGAGTAAACAAATTTTCCTAATCTTTCTGTTCAAGCGCCATCTAC,0.814 RPM ratio (pull-down/input)
5,GATGATTGTTCTCCCAGCTGATGAATTACGCCCCTCGAGTAAACAAATTTTCCTAATCTTTCTGTTCAAGCGCCATCTAC,0.968 RPM ratio (pull-down/input)
6,GATGATTGTTCTCCCAGCTGATGAATTGCCCCGGTCGAGTAAACAAATTTTCCTAATCTTTCTGTTCAAGCGCCATCTAC,0.773 RPM ratio (pull-down/input)
7,GATGATTGTTCTCCCAGCTGATGAATTAACTAGCTCGAGTAAACAAATTTTCCTAATCTTTCTGTTCAAGCGCCATCTAC,0.859 RPM ratio (pull-down/input)
8,GATGATTGTTCTCCCAGCTGATGAATTCTCCTTTTCGAGTAAACAAATTTTCCTAATCTTTCTGTTCAAGCGCCATCTAC,0.927 RPM ratio (pull-down/input)
9,GATGATTGTTCTCCCAGCTGATGAATTACTACTTTCGAGTAAACAAATTTTCCTAATCTTTCTGTTCAAGCGCCATCTAC,1.07 RPM ratio (pull-down/input)
10,GATGATTGTTCTCCCAGCTGATGAATTTACTAACTCGAGTAAACAAATTTTCCTAATCTTTCTGTTCAAGCGCCATCTAC,1.44 RPM ratio (pull-down/input)
11,GATGATTGTTCTCCCAGCTGATGAATTTTTTAAGTCGAGTAAACAAATTTTCCTAATCTTTCTGTTCAAGCGCCATCTAC,0.926 RPM ratio (pull-down/input)
12,GATGATTGTTCTCCCAGCTGATGAATTACACAAATCGAGTAAACAAATTTTCCTAATCTTTCTGTTCAAGCGCCATCTAC,1.77 RPM ratio (pull-down/input)
13,GATGATTGTTCTCCCAGCTGATGAATTAAAGGTATCGAGTAAACAAATTTTCCTAATCTTTCTGTTCAAGCGCCATCTAC,0.974 RPM ratio (pull-down/input)
14,GATGATTGTTCTCCCAGCTGATGAATTCATCTATTCGAGTAAACAAATTTTCCTAATCTTTCTGTTCAAGCGCCATCTAC,0.906 RPM ratio (pull-down/input)
15,GATGATTGTTCTCCCAGCTGATGAATTTTTCACATCGAGTAAACAAATTTTCCTAATCTTTCTGTTCAAGCGCCATCTAC,1.03 RPM ratio (pull-down/input)
16,GATGATTGTTCTCCCAGCTGATGAATTCAACAATTCGAGTAAACAAATTTTCCTAATCTTTCTGTTCAAGCGCCATCTAC,1.27 RPM ratio (pull-down/input)
17,GATGATTGTTCTCCCAGCTGATGAATTGGCTCCATCGAGTAAACAAATTTTCCTAATCTTTCTGTTCAAGCGCCATCTAC,0.923 RPM ratio (pull-down/input)
18,GATGATTGTTCTCCCAGCTGATGAATTCAATCATTCGAGTAAACAAATTTTCCTAATCTTTCTGTTCAAGCGCCATCTAC,0.965 RPM ratio (pull-down/input)
19,GATGATTGTTCTCCCAGCTGATGAATTGGCTACGTCGAGTAAACAAATTTTCCTAATCTTTCTGTTCAAGCGCCATCTAC,0.86 RPM ratio (pull-down/input)
20,GATGATTGTTCTCCCAGCTGATGAATTGGTCAGGTCGAGTAAACAAATTTTCCTAATCTTTCTGTTCAAGCGCCATCTAC,0.794 RPM ratio (pull-down/input)
21,GATGATTGTTCTCCCAGCTGATGAATTCATGACGTCGAGTAAACAAATTTTCCTAATCTTTCTGTTCAAGCGCCATCTAC,0.965 RPM ratio (pull-down/input)
